The supplement of paper PMC4967469

Experiments:
Test in all cases: Viability of human cancer cell lines after 72 h of drug (GDSC screen)
Sorafenib = compound: CNC(=O)c1cc(Oc2ccc(NC(=O)Nc3ccc(Cl)c(C(F)(F)F)c3)cc2)ccn1 [Sorafenib]; details: top dose 4 µM
Protocol: (§1)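 Human cancer cell lines in 384-well plates, medium with 10% serum, drug for 72 h over a 256-fold dose range (nine 2-fold or five 4-fold steps up to the top dose). Adherent lines were fixed and stained with the nucleic acid dye Syto60, suspension lines read with resazurin; signal relative to control wells, capped at 0 and 100%. One two-parameter sigmoid per drug and line, fitted in a mixed model over all curves with the slope shared within a line.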

FH535 = compound: Cc1cc([N+](=O)[O-])ccc1NS(=O)(=O)c1cc(Cl)ccc1Cl [FH535]; details: top dose 32 µM; top dose inferred
Protocol: as §1

XMD14-99 = compound: COc1cc(N2CCN(C)CC2)ccc1Nc1nc(N)c(C(=O)c2c(Cl)cccc2Cl)s1 [XMD14-99]; details: top dose 10.24 µM; top dose inferred
Protocol: as §1

A-443654 = compound: Cc1n[nH]c2ccc(-c3cncc(OC[C@@H](N)Cc4c[nH]c5ccccc45)c3)cc12 [A-443654]; details: top dose 1.024 µM; top dose inferred
Protocol: as §1

AT-7519 = compound: O=C(NC1CCNCC1)c1n[nH]cc1NC(=O)c1c(Cl)cccc1Cl [AT-7519]; details: top dose 10.24 µM; top dose inferred
Protocol: as §1

Dasatinib = compound: Cc1nc(Nc2ncc(C(=O)Nc3c(C)cccc3Cl)s2)cc(N2CCN(CCO)CC2)n1 [Dasatinib]; details: top dose 1.28 µM
Protocol: as §1

Row | Cell Line | AUC (Sorafenib) | pIC50 (Sorafenib) | AUC (FH535) | pIC50 (FH535) | AUC (XMD14-99) | pIC50 (XMD14-99) | AUC (A-443654) | pIC50 (A-443654) | AUC (AT-7519) | pIC50 (AT-7519) | AUC (Dasatinib) | pIC50 (Dasatinib)
1 | SK-N-FI (neuroblastoma, adherent) | 0.934 | < 5.40 | 0.825 | 4.72 | 0.987 | < 4.99 | 0.824 | 6.22 | 0.953 | < 4.99 |  | 
2 | SU-DHL-4 (B-cell lymphoma, suspension) | 0.9 | 5.60 | 0.583 | 5.50 | 0.982 | < 4.99 | 0.51 | 7.17 | 0.296 | 6.69 |  | 
3 | RC-K8 (B-cell lymphoma, suspension) | 0.92 | < 5.40 | 0.779 | 4.95 | 0.993 | < 4.99 |  |  | 0.743 | 5.55 |  | 
4 | MC116 (B-cell lymphoma, suspension) | 0.975 | < 5.40 | 0.594 | 5.47 | 0.999 | < 4.99 | 0.659 | 6.81 | 0.327 | 6.61 |  | 
5 | D-392MG (glioma, adherent) | 0.775 | 5.66 | 0.854 | < 4.49 | 0.965 | < 4.99 |  |  | 0.71 | 5.50 |  | 
6 | SKM-1 (haematopoietic neoplasm, suspension) | 0.975 | < 5.40 |  |  |  |  | 0.951 | < 5.99 |  |  | 0.939 | < 5.89
7 | LS-411N (large intestine, adherent) | 0.875 | < 5.40 | 0.623 | 5.33 | 0.966 | < 4.99 | 0.52 | 7.13 | 0.408 | 6.47 |  | 
8 | KCL-22 (chronic myeloid leukaemia, suspension) | 0.909 | < 5.40 | 0.826 | 4.82 | 0.921 | < 4.99 | 0.783 | 6.44 | 0.345 | 6.59 |  | 
9 | WIL2-NS (lymphoid neoplasm, suspension) | 0.611 | 6.32 | 0.706 | 5.17 | 0.923 | < 4.99 | 0.676 | 6.75 | 0.215 | 6.94 |  | 
10 | D-542MG (glioma, adherent) | 0.865 | < 5.40 | 0.342 | 6.18 | 0.983 | < 4.99 |  |  | 0.976 | < 4.99 |  | 
11 | Raji (Burkitt lymphoma, suspension) | 0.96 | < 5.40 | 0.717 | 5.11 | 0.99 | < 4.99 | 0.761 | 6.47 | 0.45 | 6.33 |  | 
12 | JURL-MK1 (chronic myeloid leukaemia, suspension) | 0.92 | < 5.40 | 0.752 | 4.97 | 0.948 | < 4.99 |  |  | 0.551 | 6.06 |  | 
13 | IST-MEL1 (melanoma, adherent) | 0.89 | < 5.40 | 0.679 | 5.15 | 0.978 | < 4.99 | 0.731 | 6.47 | 0.7 | 5.58 |  | 
14 | NCI-H226 (lung squamous cell carcinoma, adherent) | 0.984 | < 5.40 | 0.775 | 4.88 | 0.985 | < 4.99 | 0.977 | < 5.99 | 0.758 | 5.43 |  | 
15 | NB12 (neuroblastoma, adherent) | 0.939 | < 5.40 | 0.677 | 5.13 | 0.926 | < 4.99 |  |  | 0.746 | 5.37 |  | 
16 | BL-41 (Burkitt lymphoma, suspension) | 0.9 | 5.53 | 0.7 | 5.21 | 0.956 | < 4.99 | 0.553 | 7.06 | 0.192 | 6.97 |  | 
17 | SUP-B15 (lymphoblastic leukaemia, suspension) | 0.84 | 5.59 | 0.548 | 5.57 | 0.934 | < 4.99 | 0.716 | 6.60 | 0.324 | 6.67 |  | 
18 | OCI-AML3 (acute myeloid leukaemia, suspension) |  |  | 0.755 | 5.02 | 0.964 | < 4.99 | 0.857 | 6.19 | 0.391 | 6.47 | 0.984 | < 5.89
19 | CMK (acute myeloid leukaemia, suspension) |  |  | 0.652 | 5.31 | 0.836 | 5.27 | 0.752 | 6.53 | 0.662 | 5.78 | 0.991 | < 5.89
20 | ECC12 (stomach, suspension) | 0.945 | < 5.40 |  |  |  |  |  |  |  |  |  | 
21 | NAMALWA (Burkitt lymphoma, suspension) |  |  | 0.689 | 5.21 | 0.97 | < 4.99 | 0.581 | 6.99 | 0.315 | 6.67 | 0.735 | 6.49
22 | OCI-LY-19 (B-cell lymphoma, suspension) |  |  | 0.812 | 4.81 | 0.903 | < 4.99 | 0.717 | 6.60 | 0.278 | 6.80 | 0.874 | 5.97
23 | SK-UT-1 (soft tissue, adherent) |  |  | 0.505 | 5.68 | 0.987 | < 4.99 | 0.544 | 7.08 | 0.752 | 5.50 | 0.871 | 5.99
24 | CAS-1 (glioma, adherent) |  |  | 0.715 | 4.99 | 0.979 | < 4.99 | 0.869 | < 5.99 | 0.969 | < 4.99 | 0.78 | 6.13
25 | HCC-33 (small cell lung carcinoma, adherent) |  |  | 0.903 | < 4.49 | 0.981 | < 4.99 | 0.838 | 6.15 | 0.567 | 6.01 | 0.984 | < 5.89

Row | Cell Line | AUC (Sorafenib) | pIC50 (Sorafenib) | AUC (FH535) | pIC50 (FH535) | AUC (XMD14-99) | pIC50 (XMD14-99) | AUC (A-443654) | pIC50 (A-443654) | AUC (AT-7519) | pIC50 (AT-7519) | AUC (Dasatinib) | pIC50 (Dasatinib)
26 | MZ1-PC (pancreas, adherent) |  |  | 0.694 | 5.09 | 0.911 | < 4.99 | 0.544 | 7.06 | 0.481 | 6.25 | 0.397 | 7.41
27 | TE-441-T (rhabdomyosarcoma, adherent) |  |  | 0.682 | 5.20 | 0.984 | < 4.99 | 0.889 | < 5.99 | 0.336 | 6.64 | 0.989 | < 5.89
28 | CA46 (Burkitt lymphoma, suspension) |  |  | 0.683 | 5.17 | 0.923 | < 4.99 | 0.893 | < 5.99 | 0.268 | 6.88 | 0.927 | < 5.89
29 | SNB75 (glioma, adherent) |  |  | 0.805 | 4.58 | 0.978 | < 4.99 | 0.582 | 6.92 | 0.592 | 5.89 | 0.402 | 7.42
30 | H-EMC-SS (chondrosarcoma, adherent) |  |  | 0.722 | 4.98 | 0.97 | < 4.99 | 0.715 | 6.50 | 0.802 | 5.16 | 0.948 | < 5.89
31 | TE-1 (oesophagus, adherent) |  |  | 0.687 | 5.11 | 0.972 | < 4.99 | 0.601 | 6.88 | 0.847 | < 4.99 | 0.555 | 6.93
32 | KARPAS-45 (lymphoblastic leukaemia, suspension) |  |  | 0.649 | 5.32 | 0.931 | < 4.99 | 0.757 | 6.52 | 0.192 | 7.02 | 0.871 | 6.06
33 | NCI-H1975 (lung adenocarcinoma, adherent) |  |  | 0.707 | 5.07 | 0.978 | < 4.99 | 0.631 | 6.81 | 0.529 | 6.11 | 0.404 | 7.38
34 | NCI-H322M (lung adenocarcinoma, suspension) |  |  | 0.986 | < 4.49 | 0.987 | < 4.99 | 0.924 | < 5.99 | 0.897 | < 4.99 | 0.908 | < 5.89
35 | TE-6 (oesophagus, adherent) |  |  | 0.818 | 4.66 | 0.978 | < 4.99 | 0.738 | 6.46 | 0.977 | < 4.99 | 0.827 | 6.01
36 | LB771-HNC (head and neck, adherent) |  |  | 0.525 | 5.62 | 0.968 | < 4.99 | 0.681 | 6.63 | 0.694 | 5.58 | 0.852 | < 5.89
37 | NCI-H720 (lung carcinoid, suspension) |  |  | 0.968 | < 4.49 | 0.989 | < 4.99 | 0.68 | 6.71 | 0.992 | < 4.99 | 0.958 | < 5.89
38 | CL-11 (large intestine, adherent) |  |  | 0.916 | < 4.49 | 0.985 | < 4.99 | 0.955 | < 5.99 | 0.98 | < 4.99 | 0.959 | < 5.89
39 | 8-MG-BA (glioma, adherent) |  |  | 0.611 | 5.40 | 0.958 | < 4.99 | 0.64 | 6.82 | 0.503 | 6.19 | 0.605 | 6.82
40 | MMAC-SF (melanoma, adherent) |  |  | 0.567 | 5.51 | 0.987 | < 4.99 | 0.872 | < 5.99 | 0.894 | < 4.99 | 0.954 | < 5.89
41 | NCI-H187 (small cell lung carcinoma, suspension) |  |  | 0.769 | 4.88 | 0.982 | < 4.99 | 0.758 | 6.42 | 0.481 | 6.25 | 0.982 | < 5.89
42 | SW684 (fibrosarcoma, adherent) |  |  | 0.816 | 4.53 | 0.98 | < 4.99 | 0.952 | < 5.99 | 0.975 | < 4.99 | 0.684 | 6.47
43 | BB30-HNC (head and neck, adherent) |  |  | 0.547 | 5.57 | 0.982 | < 4.99 | 0.702 | 6.63 | 0.495 | 6.21 | 0.468 | 7.18
44 | NCI-H1876 (small cell lung carcinoma, adherent) |  |  | 0.847 | 4.62 | 0.976 | < 4.99 | 0.734 | 6.52 | 0.551 | 6.05 | 0.934 | < 5.89
45 | HCC2218 (breast, suspension) |  |  | 0.598 | 5.40 | 0.982 | < 4.99 | 0.692 | 6.59 | 0.456 | 6.33 | 0.981 | < 5.89
46 | MOLT-13 (T-cell lymphoblastic leukaemia, suspension) | 0.975 | < 5.40 |  |  | 0.81 | 5.34 |  |  | 0.44 | 6.35 |  | 
47 | KARPAS-422 (B-cell lymphoma, suspension) |  |  | 0.692 | 5.16 | 0.891 | < 4.99 | 0.741 | 6.51 | 0.427 | 6.39 | 0.536 | 7.00
48 | LC-2-ad (lung adenocarcinoma, adherent) |  |  | 0.651 | 5.27 | 0.97 | < 4.99 | 0.366 | 7.57 | 0.496 | 6.20 | 0.376 | 7.44
49 | QIMR-WIL (acute myeloid leukaemia, suspension) |  |  | 0.642 | 5.31 | 0.924 | < 4.99 | 0.72 | 6.58 | 0.421 | 6.41 | 0.734 | 6.44
50 | TE-8 (oesophagus, adherent) |  |  | 0.678 | 5.19 | 0.971 | < 4.99 | 0.651 | 6.76 | 0.932 | < 4.99 | 0.299 | 7.68

pIC50: −log10 of the molar value. Lines with a small IC50 respond at low doses; fits outside the tested doses are given as limits. AUC, from the same fit, is the share of area under the viability curve across the 256-fold dose range; it is 1 without any effect and falls as sensitivity rises. For part of these data: An inferred top dose is not printed in the source and was worked back from the curve model.
